# This is one part of the list.
# What was measured:
# Assay in all cases: glycan array binding signal (z-score within array); higher = stronger binding
# Conditions in all cases: glycan notation: IUPAC condensed, linker removed
# Fuc(a1-2)Gal = target: Fuc(a1-2)Gal
# Method in brief: (§1)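 Glycan array data came from 3228 arrays in the Consortium for Functional Glycomics database, and only arrays with an available protein sequence were kept. Glycan names were put into IUPAC-condensed notation, and columns mapping to the same glycan were averaged. The binding signal is a within-array Z-score, averaged across arrays of one protein sequence run at different concentrations or buffers and across linkers. A negative Z-score can be read as non-binding.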
# Fuc(a1-2)Gal(b1-3)GalNAc = target: Fuc(a1-2)Gal(b1-3)GalNAc
# Method in brief: as §1
# [1] = target: Fuc(a1-2)Gal(b1-3)GalNAc(a1-3)[Fuc(a1-2)]Gal(b1-4)Glc
# Method in brief: as §1
# [2] = target: Fuc(a1-2)Gal(b1-3)GalNAc(a1-3)[Fuc(a1-2)]Gal(b1-4)GlcNAc
# Method in brief: as §1
# [3] = target: Fuc(a1-2)Gal(b1-3)GalNAc(b1-3)Gal
# Method in brief: as §1
# [4] = target: Fuc(a1-2)Gal(b1-3)GalNAc(b1-3)Gal(a1-4)Gal(b1-4)Glc
# Method in brief: as §1
# [5] = target: Fuc(a1-2)Gal(b1-3)GalNAc(b1-4)[Neu5Ac(a2-3)]Gal(b1-4)Glc
# Method in brief: as §1
# Fuc(a1-2)Gal(b1-3)GlcNAc = target: Fuc(a1-2)Gal(b1-3)GlcNAc
# Method in brief: as §1
# [6] = target: Fuc(a1-2)Gal(b1-3)GlcNAc(b1-2)Man(a1-3)[Fuc(a1-2)Gal(b1-3)GlcNAc(b1-2)Man(a1-6)]Man(b1-4)GlcNAc(b1-4)GlcNAc
# Method in brief: as §1
# [7] = target: Fuc(a1-2)Gal(b1-3)GlcNAc(b1-2)Man(a1-3)[Fuc(a1-2)Gal(b1-3)GlcNAc(b1-2)Man(a1-6)]Man(b1-4)GlcNAc(b1-4)[Fuc(a1-6)]GlcNAc
# Method in brief: as §1
# [8] = target: Fuc(a1-2)Gal(b1-3)GlcNAc(b1-3)Gal(b1-4)Glc
# Method in brief: as §1
# [9] = target: Fuc(a1-2)Gal(b1-3)GlcNAc(b1-3)GalNAc
# Method in brief: as §1
# [10] = target: Fuc(a1-2)Gal(b1-3)GlcNAc(b1-3)[Fuc(a1-2)Gal(b1-3)GlcNAc(b1-6)]GalNAc
# Method in brief: as §1
# [11] = target: Fuc(a1-2)Gal(b1-3)GlcNAc(b1-3)[Gal(b1-4)GlcNAc(b1-6)]Gal(b1-4)Glc
# Method in brief: as §1
# [12] = target: Fuc(a1-2)Gal(b1-3)GlcNAc(b1-3)[Gal(b1-4)[Fuc(a1-3)]GlcNAc(b1-6)]Gal(b1-4)Glc
# Method in brief: as §1
# [13] = target: Fuc(a1-2)Gal(b1-3)GlcNAc(b1-3)[Neu5Ac(a2-6)Gal(b1-4)GlcNAc(b1-6)]Gal(b1-4)Glc
# Method in brief: as §1
# [14] = target: Fuc(a1-2)Gal(b1-3)GlcNAc6S
# Method in brief: as §1
# [15] = target: Fuc(a1-2)Gal(b1-3)[Fuc(a1-4)]GlcNAc
# Method in brief: as §1
# [16] = target: Fuc(a1-2)Gal(b1-3)[Fuc(a1-4)]GlcNAc(b1-2)Man(a1-3)[Fuc(a1-2)Gal(b1-3)[Fuc(a1-4)]GlcNAc(b1-2)Man(a1-3)]Man(b1-4)GlcNAc(b1-4)GlcNAc
# Method in brief: as §1
# [17] = target: Fuc(a1-2)Gal(b1-3)[Fuc(a1-4)]GlcNAc(b1-2)Man(a1-3)[Fuc(a1-2)Gal(b1-3)[Fuc(a1-4)]GlcNAc(b1-2)Man(a1-6)]Man(b1-4)GlcNAc(b1-4)GlcNAc
# Method in brief: as §1
# [18] = target: Fuc(a1-2)Gal(b1-3)[Fuc(a1-4)]GlcNAc(b1-2)Man(a1-3)[Fuc(a1-2)Gal(b1-3)[Fuc(a1-4)]GlcNAc(b1-2)Man(a1-6)]Man(b1-4)GlcNAc(b1-4)[Fuc(a1-6)]GlcNAc(b1-4)[Fuc(a1-6)]GlcNAc
# Method in brief: as §1
# [19] = target: Fuc(a1-2)Gal(b1-3)[Fuc(a1-4)]GlcNAc(b1-3)[Fuc(a1-3)[Gal(b1-4)]GlcNAc(b1-6)]Gal(b1-4)Glc
# Method in brief: as §1
# [20] = target: Fuc(a1-2)Gal(b1-3)[Fuc(a1-4)]GlcNAc(b1-3)[Gal(b1-4)GlcNAc(b1-6)]Gal(b1-4)Glc
# Method in brief: as §1
# [21] = target: Fuc(a1-2)Gal(b1-4)Fuc(a1-3)]GlcNAc(b1-2)Man(a1-3)[Fuc(a1-2)Gal(b1-4)[Fuc(a1-3)]GlcNAc(b1-2)Man(a1-6)]Man(b1-4)GlcNAc(b1-4)GlcNAc
# Method in brief: as §1
# Fuc(a1-2)Gal(b1-4)Glc = target: Fuc(a1-2)Gal(b1-4)Glc
# Method in brief: as §1
# Fuc(a1-2)Gal(b1-4)Glc6S = target: Fuc(a1-2)Gal(b1-4)Glc6S
# Method in brief: as §1
# Fuc(a1-2)Gal(b1-4)GlcNAc = target: Fuc(a1-2)Gal(b1-4)GlcNAc
# Method in brief: as §1
# [22] = target: Fuc(a1-2)Gal(b1-4)GlcNAc(b1-2)Man
# Method in brief: as §1
# [23] = target: Fuc(a1-2)Gal(b1-4)GlcNAc(b1-2)Man(a1-3)[Fuc(a1-2)Gal(b1-4)GlcNAc(b1-2)Man(a1-6)]Man(b1-4)GlcNAc(b1-4)GlcNAc
# Method in brief: as §1
# [24] = target: Fuc(a1-2)Gal(b1-4)GlcNAc(b1-2)Man(a1-3)[Fuc(a1-2)Gal(b1-4)GlcNAc(b1-2)Man(a1-6)]Man(b1-4)GlcNAc(b1-4)[Fuc(a1-6)]GlcNAc
# Method in brief: as §1
binder,measurement,setting,value
"GNA (Galanthus nivalis), P30617 (protein) MAKASLLILAAIFLGVITPSCLSDNILYSGETLSTGEFLNYGSFVFIMQEDCNLVLYDVDKPIWATNTGGLSRSCFLSMQTDGNLVVYNPSNKPIWASNTGGQNGNYVCILQKDRNVVIYGTDRWATGTHTGLVGIPASPPSEKYPTAGKIKLVTAK",glycan array binding signal (z-score),Fuc(a1-2)Gal,-0.113
same,glycan array binding signal (z-score),Fuc(a1-2)Gal(b1-3)GalNAc,-0.207
same,glycan array binding signal (z-score),[1],-0.135
same,glycan array binding signal (z-score),[2],-0.155
same,glycan array binding signal (z-score),[3],-0.183
same,glycan array binding signal (z-score),[4],-0.199
same,glycan array binding signal (z-score),[5],-0.228
same,glycan array binding signal (z-score),Fuc(a1-2)Gal(b1-3)GlcNAc,-0.167
same,glycan array binding signal (z-score),[6],0.118
same,glycan array binding signal (z-score),[7],0.254
same,glycan array binding signal (z-score),[8],-0.178
same,glycan array binding signal (z-score),[9],-0.172
same,glycan array binding signal (z-score),[10],-0.148
same,glycan array binding signal (z-score),[11],-0.168
same,glycan array binding signal (z-score),[12],-0.082
same,glycan array binding signal (z-score),[13],-0.17
same,glycan array binding signal (z-score),[14],-0.155
same,glycan array binding signal (z-score),[15],-0.166
same,glycan array binding signal (z-score),[16],-0.097
same,glycan array binding signal (z-score),[17],0.191
same,glycan array binding signal (z-score),[18],-0.009
same,glycan array binding signal (z-score),[19],-0.172
same,glycan array binding signal (z-score),[20],-0.144
same,glycan array binding signal (z-score),[21],-0.129
same,glycan array binding signal (z-score),Fuc(a1-2)Gal(b1-4)Glc,-0.153
same,glycan array binding signal (z-score),Fuc(a1-2)Gal(b1-4)Glc6S,-0.048
same,glycan array binding signal (z-score),Fuc(a1-2)Gal(b1-4)GlcNAc,-0.169
same,glycan array binding signal (z-score),[22],-0.156
same,glycan array binding signal (z-score),[23],-0.066
same,glycan array binding signal (z-score),[24],0.132
